The source of these data is the supplement of paper PMC10126150.

The subject of this series is ATP. The series can be described thus: switch fluorescence ratio, 500 uM ATP over buffer (Cy3 cluster intensity, sum of 5 cycles each) (fold (ratio)); higher = stronger signal-on switching upon ATP binding; sequences stand for … in TCGTCGGCAGCGTCAGATGTGTATAAGAGACAGTTTTTTTTTTTTTTTTTTTTTTTTT…TC. The following applies: aptamer strand: ATP DNA aptamer (quencher-CACCTGGGGGAGTATTGCGGAGGAAGG + anchor), 100 nM annealed; ATP concentration: 500 uM; one replicate. Put shortly: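 Five buffer/ATP imaging cycles were run on Cy3-labelled switching-strand clusters on a modified Illumina MiSeq flow-cell, with NaOH stripping and re-annealing between cycles. In each cycle, clusters annealed to 100 nM quencher-labelled ATP aptamer were imaged in selection buffer, then after 15 min with 500 uM ATP at 22 °C. Per cluster, the fluorescence ratio is summed target-cycle over summed buffer-cycle Cy3 intensity, averaged per switch-domain sequence. Only clusters within 100-1000 RFU were kept.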

Values marked as one replicate rest on one cluster of the flow cell; about a third of the high ones do not repeat.
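Note: ATP exposure 15 min at 22 °C before imaging.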

As to CCAGCAGCG, the switch fluorescence ratio is 1.05.

Turning to TGGTAATGTC, the switch fluorescence ratio amounted to 1.17.

Take TCTAATCGGT: the switch fluorescence ratio was 0.96.

Take TATGAAAATT: the switch fluorescence ratio stood at 1.

On to TCGCTGGAGA, for which the switch fluorescence ratio stood at 1.06.

GGGTTGCGAT: the switch fluorescence ratio stood at 1.02.

In the case of CACATTATC, the switch fluorescence ratio came to 1.

Take GGGAGTGTAT: the switch fluorescence ratio amounted to 0.981.

Turning to CAGACTCGTA, the switch fluorescence ratio was 0.968.

Regarding AAGGCCTTTT, the switch fluorescence ratio was 0.991.

As to GGAAAATCG, the switch fluorescence ratio was 0.976.

Regarding CAAGCATCTA, the switch fluorescence ratio came to 0.972.

For TACGGGTTAA, the switch fluorescence ratio amounted to 1.03.

For the sequence ATGGGAGCG, the switch fluorescence ratio stood at 0.927.

AGGTATCACG: the switch fluorescence ratio was 0.965.

As to TGAGCGCGTT, the switch fluorescence ratio worked out at 1.02.

With GGTGAAAGGG, the switch fluorescence ratio worked out at 0.995.

Regarding CTGGAGGAAT, the switch fluorescence ratio turned out to be 1.75.

For the sequence TTGATTCAAA, the switch fluorescence ratio amounted to 0.98.

Consider GTGAAATCCA, for which the switch fluorescence ratio turned out to be 1.01.

Take TCCGTCCATC: the switch fluorescence ratio worked out at 1.4.

As for TCATGTTGGT, the switch fluorescence ratio was found to be 1.04.

Take ATGGTAATAT: the switch fluorescence ratio was 1.01.

On to AAGATACATT, for which the switch fluorescence ratio amounted to 1.03.

As to CCCGCCCGCC, the switch fluorescence ratio was determined as 2.83.

CCGTGTCAGC: the switch fluorescence ratio was determined as 1.12.

As for GGTATTAGAA, the switch fluorescence ratio amounted to 0.95.

Take CTGTTAAGGG: the switch fluorescence ratio worked out at 0.985.

As to TTCAGAAGGC, the switch fluorescence ratio is 1.03.

For GTAAGAATGT, the switch fluorescence ratio turned out to be 1.04.

GGGCGTTATC: the switch fluorescence ratio was found to be 1.01.

On to TTTTCGCGCT, for which the switch fluorescence ratio was determined as 1.02.

Regarding CGGGTGTGT, the switch fluorescence ratio was determined as 1.05.

As to TTCTGGCTTA, the switch fluorescence ratio was 1.

Regarding CCAATGTCAA, the switch fluorescence ratio amounted to 1.29.

TCGCAGGGG: the switch fluorescence ratio was found to be 1.1.

With CGTTGCGACG, the switch fluorescence ratio came to 0.967.

For the sequence CACGGGGCTA, the switch fluorescence ratio is 0.993.

For the sequence CGGCTATTAT, the switch fluorescence ratio is 1.

For the sequence TGCAGGGGAG, the switch fluorescence ratio is 0.969.

On to TTGCCAGAAC, for which the switch fluorescence ratio was determined as 0.99.

For the sequence GCATGACAGT, the switch fluorescence ratio was found to be 1.03.

Take GGCGCCCCGA: the switch fluorescence ratio turned out to be 1.03.

As for AGGCCACGCA, the switch fluorescence ratio turned out to be 1.18.

Take CATTAACCTC: the switch fluorescence ratio is 1.05.

With TTAGTTATAA, the switch fluorescence ratio was found to be 1.05.

Take ACTTTCTCTT: the switch fluorescence ratio turned out to be 0.999.

Regarding CCCCCACCAT, the switch fluorescence ratio is 1.06.

For ATGCGGCATG, the switch fluorescence ratio is 1.01.

GAGTCCGCGG: the switch fluorescence ratio was 1.62.

In the case of AGGGCTGGCA, the switch fluorescence ratio is 0.966.

For TGGTGACCCG, the switch fluorescence ratio came to 1.05.

On to ATTGCGTACC, for which the switch fluorescence ratio amounted to 1.

As to CACCATGTGG, the switch fluorescence ratio came to 1.04.

For the sequence CCGCTTGGCC, the switch fluorescence ratio turned out to be 2.03.

With AGGATATAAG, the switch fluorescence ratio was 0.965.

Turning to TTTCTGTGAA, the switch fluorescence ratio is 1.

For the sequence GCTTTTATTG, the switch fluorescence ratio was 1.

Consider AGTCATAGAA, for which the switch fluorescence ratio turned out to be 1.02.

As for TCCTGCACG, the switch fluorescence ratio was 1.95.

Consider ACGGAGATGG, for which the switch fluorescence ratio is 1.

Take CGGTAGAGTT: the switch fluorescence ratio was found to be 1.03.

In the case of CCGCGTAATG, the switch fluorescence ratio was found to be 3.28.

For the sequence ACATATCGTT, the switch fluorescence ratio came out at 1.03.

Consider AAAGGTTTG, for which the switch fluorescence ratio worked out at 0.975.

Regarding AAACGCCAAA, the switch fluorescence ratio came out at 1.04.

CTTGTTGAGT: the switch fluorescence ratio worked out at 0.995.

Turning to CCGTTGCTTC, the switch fluorescence ratio turned out to be 1.71.

Regarding TTCCCGGTGA, the switch fluorescence ratio is 1.41.

As for AATTGGCCAA, the switch fluorescence ratio was determined as 0.966.

Take TAGCATCTTC: the switch fluorescence ratio is 1.12.

As for TTGACCCGCT, the switch fluorescence ratio was 3.37.

With CGAGTCGGCT, the switch fluorescence ratio turned out to be 0.975.

With TATGTTTAGT, the switch fluorescence ratio was 0.994.

CCGTTGTTGC: the switch fluorescence ratio is 1.18.

Consider TTTTCGGAAA, for which the switch fluorescence ratio was 0.995.

For GAGTGAACAT, the switch fluorescence ratio is 1.01.

As for CTAAGTAGGA, the switch fluorescence ratio was 0.999.

As for TAGGATTTAA, the switch fluorescence ratio was 1.01.

Turning to CATAAGACCC, the switch fluorescence ratio worked out at 1.08.

TGTTCTCG: the switch fluorescence ratio came to 1.02.

As for GAGCATACGT, the switch fluorescence ratio was 1.25.

Regarding TATGTTTTGC, the switch fluorescence ratio turned out to be 1.01.

CATGACAGC: the switch fluorescence ratio is 1.01.

Consider TGCGTCCCTG, for which the switch fluorescence ratio amounted to 0.979.

On to TCTTTTCTA, for which the switch fluorescence ratio worked out at 0.986.

In the case of GATGGAGCGT, the switch fluorescence ratio turned out to be 1.03.

As for GGGCTATAAT, the switch fluorescence ratio worked out at 1.02.

For the sequence AGCGTTGTTG, the switch fluorescence ratio is 1.

For the sequence CATTCAACCG, the switch fluorescence ratio stood at 1.15.

For the sequence CCGGAATTGC, the switch fluorescence ratio is 5.45.

Consider GGGGTCGAAC, for which the switch fluorescence ratio is 0.953.

With TGCCTACGGA, the switch fluorescence ratio was 1.01.

ATGCCCGTAG: the switch fluorescence ratio came out at 0.994.

For the sequence CTTTGAAGCT, the switch fluorescence ratio came to 1.01.

GGCAGTTGAC: the switch fluorescence ratio came to 0.987.

Consider TTGTGCCTTG, for which the switch fluorescence ratio was found to be 1.02.

Turning to GGGAGTCGCA, the switch fluorescence ratio amounted to 0.895.

On to GTCTACTGGA, for which the switch fluorescence ratio came to 1.04.

Consider GCACCGGAAA, for which the switch fluorescence ratio is 1.78.

For the sequence CTCCGATCAG, the switch fluorescence ratio came to 1.82.

In the case of CCGGGTAACT, the switch fluorescence ratio was 1.1.

On to GTAGTCGTAA, for which the switch fluorescence ratio amounted to 1.01.

On to CAGGCAGTAG, for which the switch fluorescence ratio worked out at 1.11.

For TCTAAGCACA, the switch fluorescence ratio was found to be 1.24.

Regarding CTACTCCCGT, the switch fluorescence ratio amounted to 1.29.

Take CGCGTCTGTA: the switch fluorescence ratio came to 1.04.

On to AAGTCGAACC, for which the switch fluorescence ratio is 0.987.

For the sequence GCTCCAAAGT, the switch fluorescence ratio was determined as 1.07.

Turning to GGGCTAACTC, the switch fluorescence ratio stood at 1.04.

Turning to CCACGGGGAG, the switch fluorescence ratio came to 1.13.

Take AGTTGACGTT: the switch fluorescence ratio worked out at 0.987.

ATGCGAGAGT: the switch fluorescence ratio was determined as 0.999.

Regarding ACGCGCAGTA, the switch fluorescence ratio was found to be 1.07.

For CTGAGTCTGG, the switch fluorescence ratio was 1.02.

For the sequence GGGAAAACTT, the switch fluorescence ratio was 1.03.

As for TCTAGTCAG, the switch fluorescence ratio came to 1.03.

Regarding GGTCATATGA, the switch fluorescence ratio came out at 1.04.

GTATGGCTTA: the switch fluorescence ratio turned out to be 1.02.

Turning to CCCCGTGCAG, the switch fluorescence ratio is 1.09.
